Experimental data published in PubChem BioAssay AID652104 (National Center for Advancing Translational Sciences (NCATS), 2013).
“And” between values parts separate entries of the source, which are not always exact repeats. Equal entries are not always repeated. The whole screen tested about 410,000 compounds, of which about 7,200 (1.8%) were called active. The inconclusive results got no clear call from the source; some entries with a clear call stand among them for comparison. Calls come from the whole dose curve; as a rule, active = well fitted activation curve with a large enough effect; inconclusive = small, poorly fitted or top-dose-only effect, or another doubt; inactive = no such curve, though single readings can be large or run the other way. Potencies of inconclusive entries are doubtful fits and often do not repeat.

Assay: qHTS of TDP-43 Inhibitors; note: nearly all actives have a fitted effect of over 50% in size; for growth rescue (activation): % of control where 0% means no effect
Conditions: TDP-43 expressing yeast growth rescue, BacTiter-Glo, 24 h; growth rescue (activation): at 46.1 µM (top of the series) unless noted
In short: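 Readout is BacTiter-Glo luminescence of cell growth, so inhibitors register as activators. TDP-43-expressing yeast at OD600=0.02 in galactose medium, after raffinose pregrowth to mid-log, were incubated with compound for 24 hr at 30 deg C.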
Potency is the fitted concentration of half-maximal effect; tags give direction and shape of the fitted curve.

Potency, inactive:
COc1ccc(N(Cc2cccs2)C(=O)COc2cc(C)c(Cl)c(C)c2)cc1
COc1ccc(-c2noc(-c3cccc(OC)c3OC)n2)cc1
CCOc1ccc2oc(=O)cc(CN3CCN(c4ccccc4)CC3)c2c1
C=CCSC1=N/C(=C\c2ccc3c(c2)OCO3)C(=O)S1
Cc1cc(C)c(NC(=O)CCC(=O)N2Cc3ccccc3Oc3ncccc32)c(C)c1
Cc1ccc(C(=O)NNC(=O)CSc2nnc(C3CC3)n2C)cc1
Cc1nc2ccc(Cl)cn2c1C(=O)NN
CC1=NNC(=O)C1CCC(=O)N/N=C/C(Br)=C/c1ccccc1 (stereo not given)
COc1ccc([N+](=O)[O-])cc1NCc1cccnc1
CCC(C)Sc1c(C(C)C)cnc2c1c(=O)n(C)c(=O)n2C (stereo not given)
CCOc1ccc(CNC(=O)C2CCN(S(=O)(=O)c3cn(C)cn3)CC2)cc1OC
CCCCCn1cc2c(c1-c1ccc(Cl)cc1)c(=O)n(C)c(=O)n2C
COc1ccc(C)cc1-n1c(-c2ccc(C)cc2)cc2c1CC(C)(C)CC2=O

Potency, active:
Cc1c(CCC(=O)N2CCC[C@H]2C(=O)O)c(=O)oc2cc3oc4c(c3cc12)CCCC4 20 µM
CC(=O)c1ccc(N2CCC(c3cc(-c4ccc(Cl)cc4)n[nH]3)CC2)c([N+](=O)[O-])c1 15.8 µM
COc1ccc(-c2nnc(-c3ccc(N)cc3)o2)cc1 10 µM
Cc1cc(Cl)c2oc(C(=O)N3CCN(C(=O)c4ccco4)CC3)c(C)c2c1 22.4 µM
CCOC(=O)N1C(=O)[C@@](c2ccc(Cl)cc2)(C(C)C)N1C(=O)OCC 20 µM
CCC(CC)COC(=O)C(C#N)c1nc2ccccc2nc1N1CCOCC1 (stereo not given) 20 µM
N/C(=N\OC(=O)CCC1CCCC1)c1ccc([N+](=O)[O-])cc1 20 µM
COc1ccc(Br)cc1S(=O)(=O)NCCc1cccs1 20 µM
COc1ccc(C(=O)c2coc3ccc(OC(C)=O)cc23)cc1 12.6 µM

Potency, inconclusive:
O=C(Nc1ccccc1)c1sc2cc(C(F)(F)F)cnc2c1-c1cccs1 10 µM [activator, partial curve]
Cc1sc2nc(C3CC3)nc(N3CCN(C(=O)c4ccccc4F)CC3)c2c1C 28.2 µM [activator, single point]
COc1cccc(CNC(=O)CSc2c3c(nc4ccc(Cl)cc24)CCCC3)c1OC 20 µM [activator, partial curve]
CC(NC(=O)c1cnccn1)c1ccc(S(N)(=O)=O)cc1 (stereo not given) 15.8 µM [activator, single point]
COc1ccc(C(=O)OCC(=O)NC(=O)Nc2ccccc2F)c(OC)c1 7.94 µM [activator, full curve, poor fit]
COc1ccccc1Sc1nc(-c2ccccn2)ncc1OC 17.8 µM [activator, single point]
CSc1nnc2[nH]c(=O)cc(C)n12 0.316 µM [activator, full curve, poor fit]
CCCCn1nnnc1C(c1ccccc1)N1CCN(c2ccc(OC)cc2)CC1 (stereo not given) 35.5 µM [activator, single point]
Cc1ccccc1C(=O)NNC(=S)Nc1cccc(C(F)(F)F)c1 5.01 µM [activator, full curve]
CCOC(=O)C1CCCN(C2=NC(=O)/C(=C/c3ccc(OC)cc3OC)S2)C1 (stereo not given) 35.5 µM [activator, single point]
COc1ccc(Cl)cc1NC(=O)Cn1cc2c(n1)CCC(C)C2 (stereo not given) 6.31 µM [activator, partial curve]
Cc1ccc(OCC(=O)Nc2nc(-c3ccccn3)cs2)c(C)c1 10 µM [activator, partial curve]
COC(=O)CCCC1=CC2=C(c3ccccc3)C(=O)C(C)(OC(=O)C3CCCC3)C(=O)C2=CN1c1ccc(OC)cc1 (stereo not given) 12.6 µM [activator, partial curve]
Cc1ccccc1Nc1nc(Nc2ccccc2C)nc(SC2=NCCS2)n1 20 µM [activator, single point]
Clc1cccc(-c2nc3c4ccccc4ccn3c2Cc2ccsc2)c1 20 µM [activator, partial curve]
CC(=O)N(C(C)=O)n1c(/C=C/c2ccc([N+](=O)[O-])cc2)nc2ccccc2c1=O 0.631 µM [activator, full curve, poor fit]
CC1CN(C(=O)c2cc(Br)c(Br)s2)CC(C)O1 (stereo not given) 15.8 µM [activator, partial curve]
Cc1nc(N2CCOCC2)c2c(C(=O)N3CCN(c4cccc(C)c4C)CC3)c(C)oc2n1 17.8 µM [activator, single point]
Cc1ccc(C)c(OCC(=O)Nc2ccc3c(c2)OCO3)c1C 35.5 µM [activator, single point]
Cc1cnc(C(=O)Nc2cccc3cccnc23)cn1 1 µM [activator, full curve, poor fit]
O=Cc1ccc(OCc2ccc3c(c2)OCO3)cc1 14.1 µM [activator, partial curve]
CCCOc1ccc(C2c3c(oc4ccccc4c3=O)C(=O)N2c2nc(C)c(C(=O)OCC)s2)cc1 (stereo not given) 3.16 µM [activator, partial curve]
CCOC(=O)C1=C(C)c2ccccc2OC1C(=O)OCC (stereo not given) 28.2 µM [activator, partial curve]
CCOC(=O)c1oc2cc(O)cc(O)c2c(=O)c1OCc1ccccc1 0.316 µM [activator, full curve, poor fit]
O=C(Nc1cccnc1Cl)c1cc(-c2ccco2)on1 5.62 µM [activator, single point]
Cc1ccc(Cn2cc(/C=C/C(=O)O)c(-c3ccccc3)n2)cc1 11.2 µM [activator, partial curve]
Clc1ccccc1CSc1ncn(-c2ccccc2)n1 17.8 µM [activator, single point]
CC(C)(C)C(=O)NC(=S)NCc1ccccc1 8.91 µM [activator, partial curve]
CN(CC(=O)Nc1ccc(F)c(Cl)c1)S(=O)(=O)c1cccc2nsnc12 28.2 µM [activator, single point]
CC(C)c1ccc(NC(=O)C2(C)Cc3ccccc3C(=O)O2)cc1 (stereo not given) 35.5 µM [activator, single point]
CCN(c1ccc(C(=O)CN2C(=O)NC3(CCOc4ccccc43)C2=O)cc1)S(C)(=O)=O (stereo not given) 2.51 µM [activator, full curve, poor fit]
COc1ccc(C23CC4CC(CC(C(=O)O)(C4)C2)C3)c(F)c1 28.2 µM [activator, single point]
COc1ccc(-n2ncc3c(N4CCCCC4)ncnc32)cc1 12.6 µM [activator, single point]
Cc1sc(-c2ccncc2)nc1OC(=O)c1ccccc1 7.94 µM [activator, partial curve, poor fit]
Cc1ccc(S(=O)(=O)N2CCC(C(=O)OCc3ccc([N+](=O)[O-])cc3)CC2)cc1 35.5 µM [activator, partial curve]
Cc1ccc(CNC(=O)COc2ccccc2-c2ccccc2)cc1 20 µM [activator, single point]
Cc1cccc(C)c1Nc1n[nH]c(=S)s1 5.62 µM [activator, partial curve]
CC1(C(=O)N(CC(=O)NC2CCCC2)Cc2ccc(Cl)cc2)CC(=O)N=C2C=CC=CN21 (stereo not given) 7.08 µM [activator, partial curve, poor fit]
COc1ccc(C(=O)COc2ccccc2C(N)=O)cc1 35.5 µM [activator, partial curve]
COc1ccc(-c2nc3scc(CCNC(=O)c4cc(OC)cc(OC)c4)n3n2)cc1 3.55 µM [activator, partial curve]
O=[N+]([O-])c1cccc(N/N=C/c2ccc(N3CCOCC3)cc2)c1 25.1 µM [activator, single point]
Cc1cc(C)c(C#N)c(SCS(=O)c2ccc(C(C)(C)C)cc2)n1 (stereo not given) 22.4 µM [activator, single point]

Growth rescue (activation), inconclusive:
Cc1cc2occ(CC(=O)N(C)CC(=O)Nc3ccccc3Br)c2cc1C 40.4% [activator]
C(C#CCCCCCCCCC[n+]1ccccc1)#CCCCCCCCCC[n+]1ccccc1 -54.5% [activator] and -76.5% [activator]
S=c1[nH]nc(C2CCCCC2)n1/N=C/c1ccccc1Br 37.6% [activator]
O=C(NC(=S)N1CCc2ccccc21)c1ccc(Br)o1 127% [activator]

Growth rescue (activation), inactive:
CCOc1ccc(-c2cn3c(n2)sc2cc(C(=O)NC4CCCc5ccccc54)ccc23)cc1 (stereo not given) 2.35% [at 9.22 µM]
CC(=O)c1ccc(N2CCN(C(=O)c3ccc(Cn4c(=O)[nH]c5ccccc5c4=O)cc3)CC2)cc1 -9.59% [at 9.22 µM]
